Viability of KB3-1 and Nalm-6 cells after 48 h of drug alone (CellTiter-Glo), 11 doses over about 4.5 log units. % of DMSO wells, lower = more cell loss; AC50 from the fitted curve, lower = more potent. No active / inactive call. Nalm-6 was screened in two runs. AC50 is listed only for well-fitted inhibitory curves. KB3-1 is a HeLa-derived carcinoma line, Nalm-6 a B-cell precursor leukaemia line.
Tests used:
[1] = tested on: Nalm-6; test: viability (% of DMSO control); higher = more viable cells
Description: (§1)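 Eleven-dose screen of the NCATS MIPE 3 library on cells without co-treatment; CellTiter-Glo after 48 h, as % of DMSO wells.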

[2] = tested on: KB3-1; test: as above
Description: as §1

[3] = tested on: Nalm-6; test: log AC50 of viability decrease (48 h) (log10 M); higher = less potent
Description: (§2)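 Eleven-dose screen of the NCATS MIPE 3 library on cells without co-treatment; CellTiter-Glo after 48 h. AC50 from the curve fit; only inhibitory curves of the better fit classes are listed.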

[4] = tested on: KB3-1; test: as above
Description: as §2

CNC(=O)c1cc(Oc2ccc(NC(=O)Nc3ccc(Cl)c(C(F)(F)F)c3)c(F)c2)ccn1 [Regorafenib]
viability ([1]; run: 1, 0.00078 µM): 116% | viability ([1]; run: 1, 0.00234 µM): 126% | viability ([1]; run: 1, 0.00702 µM): 124% | viability ([1]; run: 1, 0.0211 µM): 114% | viability ([1]; run: 1, 0.0632 µM): 117% | viability ([1]; run: 1, 0.19 µM): 114% | viability ([1]; run: 1, 0.569 µM): 113% | viability ([1]; run: 1, 1.71 µM): 102% | viability ([1]; run: 1, 5.12 µM): 95.6% | viability ([1]; run: 1, 15.4 µM): 80.2% | viability ([1]; run: 1, 46.1 µM): 1.8% | viability ([1]; run: 2, 0.00078 µM): 107% | viability ([1]; run: 2, 0.00234 µM): 103% | viability ([1]; run: 2, 0.00702 µM): 110% | viability ([1]; run: 2, 0.0211 µM): 101% | viability ([1]; run: 2, 0.0632 µM): 108% | viability ([1]; run: 2, 0.19 µM): 110% | viability ([1]; run: 2, 0.569 µM): 106% | viability ([1]; run: 2, 1.71 µM): 100% | viability ([1]; run: 2, 5.12 µM): 100% | viability ([1]; run: 2, 15.4 µM): 78.1% | viability ([1]; run: 2, 46.1 µM): 2.25% | viability ([2]; 0.00078 µM): 104% | viability ([2]; 0.00234 µM): 106% | viability ([2]; 0.00702 µM): 107% | viability ([2]; 0.0211 µM): 104% | viability ([2]; 0.0632 µM): 104% | viability ([2]; 0.19 µM): 109% | viability ([2]; 0.569 µM): 109% | viability ([2]; 1.71 µM): 103% | viability ([2]; 5.12 µM): 94.3% | viability ([2]; 15.4 µM): 93% | viability ([2]; 46.1 µM): 9.45% | log AC50 of viability decrease ([3]; run: 1): -4.68 | log AC50 of viability decrease ([3]; run: 2): -4.68 | log AC50 of viability decrease [4]: -4.58

Nc1nc(Cl)nc2c1ncn2[C@H]1C[C@H](O)[C@@H](CO)O1 [Cladribine]
viability ([1]; run: 1, 0.00156 µM): 125% | viability ([1]; run: 1, 0.00468 µM): 121% | viability ([1]; run: 1, 0.014 µM): 119% | viability ([1]; run: 1, 0.0421 µM): 126% | viability ([1]; run: 1, 0.126 µM): 117% | viability ([1]; run: 1, 0.379 µM): 85.5% | viability ([1]; run: 1, 1.14 µM): 75.9% | viability ([1]; run: 1, 3.41 µM): 56.6% | viability ([1]; run: 1, 10.2 µM): 48.7% | viability ([1]; run: 1, 30.7 µM): 36.5% | viability ([1]; run: 1, 92.2 µM): 3.08% | viability ([1]; run: 2, 0.00156 µM): 113% | viability ([1]; run: 2, 0.00468 µM): 108% | viability ([1]; run: 2, 0.014 µM): 106% | viability ([1]; run: 2, 0.0421 µM): 114% | viability ([1]; run: 2, 0.126 µM): 95.8% | viability ([1]; run: 2, 0.379 µM): 85.1% | viability ([1]; run: 2, 1.14 µM): 55.3% | viability ([1]; run: 2, 3.41 µM): 59.2% | viability ([1]; run: 2, 10.2 µM): 56.5% | viability ([1]; run: 2, 30.7 µM): 42.9% | viability ([1]; run: 2, 92.2 µM): 3.16% | viability ([2]; 0.00156 µM): 104% | viability ([2]; 0.00468 µM): 106% | viability ([2]; 0.014 µM): 104% | viability ([2]; 0.0421 µM): 110% | viability ([2]; 0.126 µM): 103% | viability ([2]; 0.379 µM): 104% | viability ([2]; 1.14 µM): 102% | viability ([2]; 3.41 µM): 98.5% | viability ([2]; 10.2 µM): 100% | viability ([2]; 30.7 µM): 89.7% | viability ([2]; 92.2 µM): 9.18% | log AC50 of viability decrease ([3]; run: 1): -5.42 | log AC50 of viability decrease ([3]; run: 2): -5.02 | log AC50 of viability decrease [4]: -4.32

CN(C)C1=C(Br)C=C(C=C1)C\2NC3=C(\C4=C2C(=O)CC(C)(C)C4)C5=CC=CC=C5C=C3 (centres undefined) [GLS968]
viability ([1]; run: 1, 0.00078 µM): 72.8% | viability ([1]; run: 1, 0.00234 µM): 86% | viability ([1]; run: 1, 0.00702 µM): 94.4% | viability ([1]; run: 1, 0.0211 µM): 95.1% | viability ([1]; run: 1, 0.0632 µM): 95.8% | viability ([1]; run: 1, 0.19 µM): 104% | viability ([1]; run: 1, 0.569 µM): 92.4% | viability ([1]; run: 1, 1.71 µM): 88.1% | viability ([1]; run: 1, 5.12 µM): 89.3% | viability ([1]; run: 1, 15.4 µM): 48.7% | viability ([1]; run: 1, 46.1 µM): 38.5% | viability ([1]; run: 2, 0.00078 µM): 101% | viability ([1]; run: 2, 0.00234 µM): 94.4% | viability ([1]; run: 2, 0.00702 µM): 99% | viability ([1]; run: 2, 0.0211 µM): 96.4% | viability ([1]; run: 2, 0.0632 µM): 101% | viability ([1]; run: 2, 0.19 µM): 98.7% | viability ([1]; run: 2, 0.569 µM): 104% | viability ([1]; run: 2, 1.71 µM): 105% | viability ([1]; run: 2, 5.12 µM): 96.9% | viability ([1]; run: 2, 15.4 µM): 56.1% | viability ([1]; run: 2, 46.1 µM): 40.9% | viability ([2]; 0.00078 µM): 97.4% | viability ([2]; 0.00234 µM): 98.4% | viability ([2]; 0.00702 µM): 98% | viability ([2]; 0.0211 µM): 94.3% | viability ([2]; 0.0632 µM): 104% | viability ([2]; 0.19 µM): 96.5% | viability ([2]; 0.569 µM): 101% | viability ([2]; 1.71 µM): 95.6% | viability ([2]; 5.12 µM): 95.4% | viability ([2]; 15.4 µM): 75.9% | viability ([2]; 46.1 µM): 29.7% | log AC50 of viability decrease ([3]; run: 1): -4.93 | log AC50 of viability decrease ([3]; run: 2): -4.93 | log AC50 of viability decrease [4]: -4.73

CCNC(=O)c1noc(-c2cc(C(C)C)c(O)cc2O)c1-c1ccc(CN2CCOCC2)cc1 [NVP-AUY922]
viability ([1]; run: 1, 0.00078 µM): 38.9% | viability ([1]; run: 1, 0.00234 µM): 21.9% | viability ([1]; run: 1, 0.00702 µM): 18.3% | viability ([1]; run: 1, 0.0211 µM): 19.2% | viability ([1]; run: 1, 0.0632 µM): 17.7% | viability ([1]; run: 1, 0.19 µM): 24.9% | viability ([1]; run: 1, 0.569 µM): 11.8% | viability ([1]; run: 1, 1.71 µM): 17% | viability ([1]; run: 1, 5.12 µM): 22.4% | viability ([1]; run: 1, 15.4 µM): 16.1% | viability ([1]; run: 1, 46.1 µM): 10.4% | viability ([1]; run: 2, 0.00078 µM): 48.9% | viability ([1]; run: 2, 0.00234 µM): 22% | viability ([1]; run: 2, 0.00702 µM): 21.1% | viability ([1]; run: 2, 0.0211 µM): 18.7% | viability ([1]; run: 2, 0.0632 µM): 16.9% | viability ([1]; run: 2, 0.19 µM): 22.8% | viability ([1]; run: 2, 0.569 µM): 11.8% | viability ([1]; run: 2, 1.71 µM): 18.9% | viability ([1]; run: 2, 5.12 µM): 19.5% | viability ([1]; run: 2, 15.4 µM): 22.1% | viability ([1]; run: 2, 46.1 µM): 10.6% | viability ([2]; 0.00078 µM): 105% | viability ([2]; 0.00234 µM): 81.9% | viability ([2]; 0.00702 µM): 53.3% | viability ([2]; 0.0211 µM): 65.4% | viability ([2]; 0.0632 µM): 67% | viability ([2]; 0.19 µM): 63.8% | viability ([2]; 0.569 µM): 62.2% | viability ([2]; 1.71 µM): 66.4% | viability ([2]; 5.12 µM): 64.5% | viability ([2]; 15.4 µM): 70% | viability ([2]; 46.1 µM): 51.1% | log AC50 of viability decrease ([3]; run: 2): -8.83 | log AC50 of viability decrease [4]: -8.68

O=C(Nc1cccnc1)N1CCC(Cc2cccc(Oc3ccc(C(F)(F)F)cn3)c2)CC1 [PF-3845]
viability ([1]; run: 1, 0.00078 µM): 82.5% | viability ([1]; run: 1, 0.00234 µM): 105% | viability ([1]; run: 1, 0.00702 µM): 104% | viability ([1]; run: 1, 0.0211 µM): 94% | viability ([1]; run: 1, 0.0632 µM): 105% | viability ([1]; run: 1, 0.19 µM): 110% | viability ([1]; run: 1, 0.569 µM): 108% | viability ([1]; run: 1, 1.71 µM): 102% | viability ([1]; run: 1, 5.12 µM): 77.8% | viability ([1]; run: 1, 15.4 µM): 58.5% | viability ([1]; run: 1, 46.1 µM): 7.17% | viability ([1]; run: 2, 0.00078 µM): 107% | viability ([1]; run: 2, 0.00234 µM): 99.4% | viability ([1]; run: 2, 0.00702 µM): 96.4% | viability ([1]; run: 2, 0.0211 µM): 96.5% | viability ([1]; run: 2, 0.0632 µM): 99.5% | viability ([1]; run: 2, 0.19 µM): 105% | viability ([1]; run: 2, 0.569 µM): 101% | viability ([1]; run: 2, 1.71 µM): 97.7% | viability ([1]; run: 2, 5.12 µM): 86.8% | viability ([1]; run: 2, 15.4 µM): 47.8% | viability ([1]; run: 2, 46.1 µM): 5.36% | viability ([2]; 0.00078 µM): 93.2% | viability ([2]; 0.00234 µM): 98.1% | viability ([2]; 0.00702 µM): 100% | viability ([2]; 0.0211 µM): 102% | viability ([2]; 0.0632 µM): 101% | viability ([2]; 0.19 µM): 107% | viability ([2]; 0.569 µM): 99.7% | viability ([2]; 1.71 µM): 101% | viability ([2]; 5.12 µM): 84.8% | viability ([2]; 15.4 µM): 71.8% | viability ([2]; 46.1 µM): 64.4% | log AC50 of viability decrease ([3]; run: 1): -4.78 | log AC50 of viability decrease ([3]; run: 2): -4.78 | log AC50 of viability decrease [4]: -5.18
